B1: ANPXY-L6-Fc1AB (protein)
chain: SLRRSSCFGGRMDRIGAQSGLGCNSFRYGGSGGSGGSGGSGGSGGSGG[not shown - human IgG1 Fc]
modifications: Synthesized ANPxy-L6-Fc1ab (protein)
B2: ANPXY-L4-Fc1AB (protein)
chain: SLRRSSCFGGRMDRIGAQSGLGCNSFRYGGSGGSGGSGG[not shown - human IgG1 Fc]
modifications: Synthesized ANPxy-L4-Fc1ab (protein)

Test: Single-dose rat PK study of recombinant ANP-Fc fusions, i.v. or s.c.
Type: in vivo
Conditions: 1 mg/kg, Sprague Dawley rats

| Molecule | half-life (T½) (intravenous bolus) [h] | mean resonance time (MRT) (intravenous bolus) [h] | volume of distribution (Vss) (intravenous bolus) [L/kg] | area under the curve (AUC) (subcutaneous) [ng·h/mL] | half-life (T½) (subcutaneous) [h] | maximum serum concentration obtained (Cmax) (subcutaneous) [ng/mL] | percent bioavailability (% F) (subcutaneous) [%] |
| --- | --- | --- | --- | --- | --- | --- | --- |
| B1 | 11.5 | 1.94 | 0.27 | 2521 | 20.3 | 71.1 | 17.3 |
| B2 | 12.3 | 2.94 | 0.49 | 2680 | 18.2 | 70.8 | 22.2 |
